Among the data in the antibiotic and cytotoxicity screens of Wong et al. (2023) are cytotoxicity call values, retold here.

Some of the results follow.

The assay concerns HSkMC (human skeletal muscle cells). Kind of assay: cytotoxicity call (relative viability < 0.9). As to conditions: 10 µM.
On to `C[C@@H]1CCCCO[C@@H](CN(C)C(=O)Nc2ccccc2)[C@H](C)CN([C@H](C)CO)C(=O)c2cc(NC(=O)Nc3cccc4ccccc34)ccc2O1`, for which the cytotoxicity call is “inactive”.

Take `Cc1noc(C)c1S(=O)(=O)N(C)C[C@@H]1Oc2c(NC(=O)c3cnccn3)cccc2C(=O)N([C@@H](C)CO)C[C@@H]1C`: the cytotoxicity call is “inactive”.

Turning to `Cc1noc(C)c1NC(=O)Nc1ccc2c(c1)CC(=O)N([C@@H](C)CO)C[C@@H](C)[C@@H](CN(C)C(=O)Nc1ccc(C(F)(F)F)cc1)O2`, the cytotoxicity call is “inactive”.

As to `C[C@@H]1CN([C@H](C)CO)C(=O)c2cc(NS(=O)(=O)c3cn(C)cn3)ccc2O[C@@H]1CN(C)Cc1ccc2c(c1)OCO2`, the cytotoxicity call is “inactive”.

For the molecule `CC(=O)N(C[C@@H](O)CO)c1c(I)c(C(=O)NCCO)c(I)c(C(=O)NC[C@@H](O)CO)c1I`, the cytotoxicity call was “inactive”.

For `COc1ccc(S(=O)(=O)Nc2ccc3c(c2)C(=O)N([C@@H](C)CO)C[C@H](C)[C@@H](CN(C)Cc2ccc(-c4ccccc4)cc2)O3)cc1`, the cytotoxicity call is “inactive”.

With `Cc1noc(C)c1S(=O)(=O)Nc1cccc2c1O[C@H](CN(C)S(=O)(=O)c1cn(C)cn1)[C@H](C)CN([C@@H](C)CO)C2=O`, the cytotoxicity call is “inactive”.

In the case of `CC(C)NC(=O)N(C)C[C@H]1OCCCC[C@@H](C)Oc2ccc(NS(C)(=O)=O)cc2C(=O)N([C@@H](C)CO)C[C@@H]1C`, the cytotoxicity call was “inactive”.

For the molecule `C[C@@H]1CCCCO[C@H](CN(C)CC2CCCCC2)[C@H](C)CN([C@@H](C)CO)C(=O)c2cc(NC(=O)Nc3cccc4ccccc34)ccc2O1`, the cytotoxicity call was “active”.

Turning to `C[C@H](CO)N1C[C@H](C)[C@@H](CN(C)Cc2ccncc2)Oc2c(NC(=O)c3cnccn3)cccc2C1=O`, the cytotoxicity call was “inactive”.

For `Cc1noc(C)c1NC(=O)Nc1ccc2c(c1)C(=O)N([C@H](C)CO)C[C@@H](C)[C@@H](CN(C)CC1CCCCC1)OCCCC[C@@H](C)O2`, the cytotoxicity call is “inactive”.

As to `COCC#Cc1ccc2c(c1)O[C@@H](CN(C)C(=O)Nc1ccc(OC)cc1)[C@H](C)CN([C@H](C)CO)S2(=O)=O`, the cytotoxicity call is “inactive”.

Consider `CO[C@H]1CN(C)C(=O)c2cc(NC(=O)NC(C)C)ccc2OC[C@H](C)N(Cc2ccc(-c3ccccn3)cc2)C[C@@H]1C`, for which the cytotoxicity call is “inactive”.

As for `C[C@@H]1CN([C@@H](C)CO)C(=O)Cc2cc(NC(=O)Nc3ccc(C(F)(F)F)cc3)ccc2O[C@@H]1CN(C)Cc1ccc(C(F)(F)F)cc1`, the cytotoxicity call was “active”.

As for `COc1ccccc1NC(=O)Nc1ccc2c(c1)OC[C@@H](C)N(Cc1ccccc1C(=O)O)C[C@@H](C)[C@H](OC)CN(C)C2=O`, the cytotoxicity call was “inactive”.

Take `C[C@@H]1CCCCO[C@H](CN(C)C(=O)Nc2ccc3c(c2)OCO3)[C@H](C)CN([C@H](C)CO)C(=O)c2cc(NC(=O)NC3CCCCC3)ccc2O1`: the cytotoxicity call was “inactive”.

As for `C[C@H](O)C#Cc1ccc2c(c1)O[C@H](CN(C)C(=O)C1CCCCC1)[C@H](C)CN([C@@H](C)CO)S2(=O)=O`, the cytotoxicity call was “inactive”.

In the case of `C[C@H](CO)N1C[C@H](C)[C@@H](CN(C)C(=O)c2cccnc2)Oc2cc(-c3cccc(C#N)c3)ccc2S1(=O)=O`, the cytotoxicity call was “inactive”.

Consider `C[C@@H]1[C@H]2[C@H](O[C@@H]3O[C@H](CO)[C@@H](O)[C@H](O)[C@H]3O)OC=C(C(=O)O)[C@H]2C[C@@H]1OC(=O)/C=C/c1ccc(O)cc1`, for which the cytotoxicity call was “inactive”.

Consider `C[C@@H]1CN([C@H](C)CO)C(=O)c2ccccc2-c2ccccc2CO[C@@H]1CN(C)C(=O)Nc1cccc(Cl)c1Cl`, for which the cytotoxicity call was “inactive”.

Consider `CC(C)(N)CN1CCCCC1`, for which the cytotoxicity call was “inactive”.

For the molecule `C[C@H](CO)N1C[C@H](C)[C@@H](CN(C)C(=O)Nc2ccc(F)cc2)Oc2c(NC(=O)c3ccc(-c4nccs4)cc3)cccc2C1=O`, the cytotoxicity call is “inactive”.

Regarding `C[C@@H]1CN([C@H](C)CO)C(=O)c2cc(NS(=O)(=O)c3ccc(Cl)cc3)ccc2O[C@H]1CN(C)C(=O)Nc1ccc(C(F)(F)F)cc1`, the cytotoxicity call was “inactive”.

On to `Cc1noc(C)c1NC(=O)N(C)C[C@@H]1Oc2ccc(NC(=O)Nc3ccc(C(F)(F)F)cc3)cc2C(=O)N([C@@H](C)CO)C[C@@H]1C`, for which the cytotoxicity call is “inactive”.

Take `Cc1noc(C)c1NC(=O)Nc1ccc2c(c1)C(=O)N([C@@H](C)CO)C[C@@H](C)[C@@H](CN(C)Cc1ccc(Cl)c(Cl)c1)OCCCC[C@@H](C)O2`: the cytotoxicity call was “inactive”.

Turning to `CCS(=O)(=O)N1CC[C@]2(CC1)CN(CC1CCOCC1)[C@@H](CO)c1c2c2ccc(cc2n1C)OC`, the cytotoxicity call is “inactive”.

Take `Cc1noc(C)c1S(=O)(=O)N(C)C[C@@H]1Oc2ccc(NC(=O)CCC(F)(F)F)cc2CC(=O)N([C@@H](C)CO)C[C@@H]1C`: the cytotoxicity call was “inactive”.

Consider `Cc1noc(C2CNC2)n1`, for which the cytotoxicity call is “inactive”.

Regarding `C[C@H]1CCCCO[C@@H](CN(C)S(=O)(=O)c2ccc(F)cc2)[C@@H](C)CN([C@@H](C)CO)C(=O)c2cc(NC(=O)C3CCCCC3)ccc2O1`, the cytotoxicity call was “inactive”.

Take `O=C(C[C@H]1C[C@@H]2c3cc(NC(=O)Nc4ccccc4)ccc3O[C@@H]2[C@@H](CO)O1)NCCN1CCCCC1`: the cytotoxicity call was “inactive”.

In the case of `CC[C@H](C)[C@H]1O[C@]2(CC[C@@H]1C)C[C@@H]1C[C@@H](C/C=C(\C)[C@@H](O[C@H]3C[C@H](OC)[C@@H](O[C@H]4C[C@H](OC)[C@@H](O)[C@H](C)O4)[C@H](C)O3)[C@@H](C)/C=C/C=C3\CO[C@@H]4[C@H](O)C(C)=C[C@@H](C(=O)O1)[C@]34O)O2`, the cytotoxicity call is “active”.

As to `CNC(=O)[C@H]1C[C@@H]2CN(Cc3cnn(C)c3)C[C@@H]2N1C`, the cytotoxicity call was “inactive”.

For `COc1ccc(CN(C)C[C@@H]2Oc3ccc(NS(=O)(=O)c4cn(C)cn4)cc3CC(=O)N([C@H](C)CO)C[C@H]2C)cc1`, the cytotoxicity call is “inactive”.

With `C[C@H](NC(=O)C[C@H]1C[C@H]2c3cc(NC(=O)Nc4ccc(C(F)(F)F)cc4)ccc3O[C@H]2[C@H](CO)O1)c1ccccc1`, the cytotoxicity call was “inactive”.

Consider `C[C@H](CO)N1C[C@H](C)[C@H](CN(C)S(=O)(=O)c2cccs2)Oc2ccc(NS(C)(=O)=O)cc2CC1=O`, for which the cytotoxicity call was “inactive”.

In the case of `Cc1oncc1C(=O)Nc1ccc(C(F)(F)F)cc1`, the cytotoxicity call is “inactive”.

For the molecule `CC(C)(C)[S@](=O)N1Cc2cc(C(=O)N3CCCCC3)nc(-c3cccc(-c4ccccc4F)c3)c2[C@@H]1CCO`, the cytotoxicity call is “inactive”.

Regarding `C[C@H](CO)N1C[C@H](C)[C@@H](CN(C)S(C)(=O)=O)OCc2cn(nn2)CCCC1=O`, the cytotoxicity call was “inactive”.

For `NCCCCC(=O)O`, the cytotoxicity call is “inactive”.

In the case of `O=C(O)C1CSCN1` (stereo not given), the cytotoxicity call was “inactive”.
